PubChem BioAssay AID463173 (ICCB-Longwood Screening Facility, Harvard Medical School, 2010)
The whole screen tested about 52,000 compounds, of which about 4,300 (8.3%) were called active. No stated cut-off is given here; in the data, active means survival mostly below about 52% (no sharp cut-off); inactive means mostly above about 56%. This is one part of the list.

Each compound was assayed on DeltatarO mutant (assay: growth inhibition of S. aureus wild type versus tarO mutant, primary screen, teichoic acid synthesis inhibitors, RN4220, OD600 (AID 463173)). Conditions: OD600, 18 h, hits give low values, screened at 18.75 µg/mL (by protocol).

| SMILES | survival |
| --- | --- |
| Cc1ccc(C(C(=O)NCC2CCCO2)N(Cc2ccc3c(c2)OCO3)C(=O)c2ccc(-c3ccccc3)[nH]2)o1 (centres undefined) | inactive: 73% |
| COC(=O)c1ccc(C2Nc3c(C)cccc3-c3cc(C)nn32)cc1 (centres undefined) | inactive: 74% |
| O=C(Cn1c(=O)oc2cc(S(=O)(=O)NCc3ccccc3)ccc21)Nc1cccc(F)c1 | inactive: 78% |
| COc1ccccc1CNc1nc2c(S(=O)(=O)c3ccc(C)c(C)c3)nnn2c2ccc(Cl)cc12 | inactive: 100% |
| CC(Oc1ccc(/C=C(/C#N)C(=O)N2CCOCC2)cc1)C(=O)O (centres undefined) | inactive: 87% |
| CCC(=O)c1ccc(N2CCCC2)c(F)c1 | inactive: 69% |
| NC(=O)CC(c1ccccc1)c1ccc2c(c1)OCO2 (centres undefined) | inactive: 97% |
| COc1ccc(NC(=O)C(NS(=O)(=O)c2cccc3nsnc23)C(C)C)cc1 (centres undefined) | inactive: 86% |
| COc1ccc(CCNC(=O)C(=O)NCC(c2ccco2)S(=O)(=O)c2ccc(C)cc2)cc1 (centres undefined) | inactive: 134% |
| O=C(NCCCc1ccccc1)Nc1c[nH]c2ccccc2c1=O | inactive: 104% |
| Cc1cccc(CS(=O)(=O)c2ncc(Cl)c(C(=O)Nc3nnc(C(C)C)s3)n2)c1 | active: 28% |
| CC(C)NC(=O)c1ccc(Cn2c(SCc3ccc(F)cc3)nc3cccnc32)cc1 | inactive: 55% |
| O=C(CCn1c(=O)c2cccn2c2cccnc21)N1CCN(c2cccc(C(F)(F)F)c2)CC1 | active: 39% |
| COc1ccc(C2=CC(c3cc(Br)ccc3F)n3c(nc4ccccc43)N2)cc1 (centres undefined) | inactive: 71% |
| O=C(Nc1c(C(=O)N2CCN(c3ccccc3F)CC2)oc2ccccc12)c1cccc(F)c1 | inactive: 92% |
| Cn1nnc(NC(=O)COc2ccccc2)n1 | inactive: 86% |
| Cc1oc(-c2ccc(C(=O)Nc3ccc(F)cc3)cc2)nc1COc1ccccc1 | inactive: 86% |
| CC1CCCN(c2cc3c(cc2F)c(=O)c(S(=O)(=O)c2cccc(Cl)c2)cn3Cc2ccccc2)C1 (centres undefined) | inactive: 88% |
| O=C(NCC(=O)N1CCCCC1)c1ccccc1 | inactive: 97% |
| O=C(O)CSCC(=O)Nc1ccccc1C(F)(F)F | inactive: 82% |
| CC(NCc1ccc(F)cc1)C(=O)NC1CCCCC1 (centres undefined) | inactive: 79% |
| COCc1nnc(NC(=O)c2cc(OC)c(OC)c(OC)c2)s1 | inactive: 73% |
| COc1ccc(OC)c(/C=C/c2nc3ccccc3c(=O)n2-c2ccc(F)c(Cl)c2)c1 | inactive: 95% |

| SMILES | survival |
| --- | --- |
| Cc1ccc(NC(=O)C2CCCN(S(=O)(=O)c3c(C)n[nH]c3C)C2)c(C)c1 (centres undefined) | inactive: 127% |
| COc1ccc(C(=O)/C=C/c2cn(CC(O)CN3CCc4ccccc43)c3ccccc23)cc1OC (centres undefined) | inactive: 68% |
| C=CCC(O)(CC=C)C(C)N (centres undefined) | inactive: 92% |
| CCOC(=O)C1=C(O)/C(=C\c2sccc2C)N=C1C | inactive: 102% |
| CCC(C(=O)Nc1cc(C)ccc1C)n1c(=O)c(C(F)(F)F)nc2ccccc21 (centres undefined) | inactive: 102% |
| O=c1oc2ccccc2cc1-c1nnc(-c2ccncc2)o1 | inactive: 73% |
| N#Cc1ccc(-c2ccc(F)cc2)n(CC(=O)N2CCCC2)c1=O | inactive: 78% |
| Cc1ccccc1Nc1c(-c2c(F)cccc2Cl)nc2ccc(Br)cn12 | inactive: 69% |
| Cc1c(C(=O)Nc2cccc(C(F)(F)F)c2)sc2nc[nH]c(=O)c12 | inactive: 73% |
| Cc1ccc(-n2ncc3c(NCCCN4CCOCC4)ncnc32)cc1C | inactive: 83% |
| CCOC(=O)c1ccc(NC(=O)CCCn2c(=O)c3cccn3c3ccccc32)cc1 | inactive: 62% |
| FC(F)(F)COc1nc(OCC(F)(F)F)nc(OCC(F)(F)F)n1 | inactive: 74% |
| COCC(=O)n1nc(-c2ccco2)nc1NCc1ccccc1Cl | inactive: 82% |
| Cc1cc(C)n(-c2nc(C)c(C)c(=O)n2CC(=O)Nc2ccc([N+](=O)[O-])cc2)n1 | inactive: 77% |
| COc1ccccc1CNC(=O)CCc1c(C)c2cc3c(C)c(C)oc3cc2oc1=O | inactive: 108% |
| CCc1nn(CC(=O)NCc2ccco2)c(=O)c2cc3c(OC)cccc3n12 | inactive: 77% |
| C=CCc1cccc2cc(-c3nc4ccc(C)cc4[nH]3)c(=O)oc12 | active: 0% |
| CCOC(=O)c1ccc(NC(=O)Cn2cc(C(=O)C3CC3)c3ccccc32)cc1 | inactive: 68% |
| COc1ccc(CCNC(=O)c2ccc3c(c2)N(Cc2ccc(F)cc2)C(=O)c2ccccc2S3(=O)=O)cc1OC | inactive: 104% |
| CC(C)(C)C1CCc2c(sc(NC(=O)Cn3nnc(-c4ccccc4Cl)n3)c2C#N)C1 (centres undefined) | inactive: 62% |
| CCOC(=O)c1c(C)[nH]c(C)c1S(=O)(=O)N1CCC(C(=O)Nc2cc(C)ccn2)CC1 | inactive: 76% |
| Cc1ccc(Cl)cc1N1CCN(C(=O)C2CCC(CNS(=O)(=O)c3cccs3)CC2)CC1 (centres undefined) | inactive: 67% |
| Cc1cccc(N2CCN(C(=O)CS(=O)(=O)c3cccc4nsnc34)CC2)c1C | inactive: 107% |

| SMILES | survival |
| --- | --- |
| Cc1ccc(CNc2ccc(-c3nc(-c4ccncc4)no3)cc2[N+](=O)[O-])cc1 | active: 39% |
| CCOc1ccccc1CNC(=O)CCc1c(C)nn(-c2ccc(N3CCCC3)nn2)c1C | inactive: 76% |
| COc1ccc(OC)c(C(=O)CC2(O)C(=O)N(Cc3ccccc3C)c3ccccc32)c1 (centres undefined) | inactive: 165% |
| Cc1ccc(/C=C(\C#N)c2nc(-c3ccc(-c4ccccc4)cc3)cs2)cc1 | inactive: 57% |
| CCOC(=O)c1cccc(NC(=O)CCS(=O)(=O)c2ccc3c(c2)CC(=O)N3C)c1 | inactive: 102% |
| Cc1ccc(S(=O)(=O)C2(C(=O)Nc3ccc(Cl)c(C(F)(F)F)c3)CC2)cc1 | inactive: 26% |
| CC(C)c1ccc(NC(=O)Cn2c(=O)n(CC3CCC(C(=O)NCCc4ccccc4)CC3)c(=O)c3ccccc32)cc1 (centres undefined) | inactive: 72% |
| COC(=O)c1ccc(Cl)cc1NC(=O)NCCc1c(C)nn(C)c1C | inactive: 81% |
| Cc1c(C(=O)N2CCOCC2)oc2c1-c1nn(CC(=O)NCc3cccc(F)c3)cc1CC2 | inactive: 105% |
| CCN1C=CC2=C(C#N)C(N)C(C#N)(C#N)C(c3cccs3)C2C1 (centres undefined) | inactive: 97% |
| COc1ccccc1CNC(=O)Cn1c(=O)nc(-c2ccccc2F)c2cc(Cl)ccc21 | inactive: 92% |
| O=C(Nc1ccccc1C(=O)OCc1cc(=O)n2c3c(sc2n1)CCCC3)c1ccc(F)cc1 | inactive: 106% |
| C=CCc1c(C)[nH]c2ccccc2c1=O | inactive: 98% |
| COc1ccc(NC(=O)C2CCN(S(=O)(=O)c3ccc4c(c3)CCCC(=O)N4)CC2)cc1OC | inactive: 74% |
| Cc1cccc(C(C)C)c1NC(=O)Cn1c(=O)oc2cc(S(=O)(=O)N3CCCC3)ccc21 | inactive: 85% |
| CCCn1c(=O)/c(=C2/C=Cc3ccccc3N2C)s/c1=C1\SC(=S)NC1=O | inactive: 80% |
| COc1ccc(-c2nc(SCC(=O)Nc3ccc4c(c3)OCCO4)c(-c3ccc(F)cc3)[nH]2)cc1 | inactive: 91% |
| CCc1ccc2nc(N(CCN(CC)CC)C(=O)c3cccs3)sc2c1 | inactive: 60% |
| Cc1ccc(-c2nc(S(=O)(=O)c3ccccc3)c(N3CCN(c4ccccc4)CC3)o2)cc1 | inactive: 102% |
| Cc1ccc2nc(COc3ccccc3NC(=O)COc3ccc(F)cc3)cc(=O)n2c1 | inactive: 99% |
| O=C(Nc1ccc(S(=O)(=O)N2CCOCC2)cc1)c1cnccn1 | inactive: 60% |
| COc1ccccc1N1CCN(C(=O)c2cc(CC(C)C)on2)CC1 | inactive: 49% |
| CCc1ccccc1N(CC)C(=O)c1c(C)oc2ncn(C)c(=O)c12 | inactive: 79% |

| SMILES | survival |
| --- | --- |
| O=C1c2oc3ccccc3c(=O)c2C(c2cccc(O)c2)N1c1nncs1 (centres undefined) | inactive: 72% |
| O=C(Cn1c(=O)nc(-c2ccccc2)c2ccccc21)NCCc1ccccc1 | inactive: 94% |
| C=CCNc1nc(N)c(C(=C(C#N)C#N)c2ccccc2)s1 | inactive: 89% |
| CCOC(=O)c1c(-c2ccc(C)cc2)csc1NC(=O)c1cc(=O)c2cc(C)ccc2o1 | active: 42% |
| CC(=O)c1ccc(NC(=O)CN2C(=O)CN(C)C(=O)c3ccccc32)cc1 | inactive: 85% |
| COc1cccc(CNC(=O)C2=C(C)C(=O)OC23CCN(C(C)=O)CC3)c1OC | inactive: 102% |
| CC(C)=C1C2C=CC1C1C(=O)N(CCO)C(=O)C21 (centres undefined) | inactive: 100% |
| COc1ccc(-c2oc3ncn4nc(COc5cccc(C)c5C)nc4c3c2-c2ccc(OC)cc2)cc1 | inactive: 73% |
| COc1cc(Nc2nc(SCc3ccc(Cl)cc3)nc3ccccc23)cc(OC)c1 | inactive: 91% |
| COc1cccc(C(=O)Nc2nc3nc(-c4ccccc4)cc(=O)n3[nH]2)c1 | inactive: 71% |
| C=C(C)C1Cc2cc(/C=C/C(=O)O)c(O)cc2O1 (centres undefined) | inactive: 80% |
| COc1ccccc1C(=O)Nc1ccc2nc(SCCOc3ccccc3C)sc2c1 | inactive: 65% |
| CC(C)c1ccc(N2C(=O)CSC23C(=O)N(Cc2cccc(F)c2)c2ccccc23)cc1 (centres undefined) | inactive: 74% |
| COc1ccc(OC)c(CNC(=O)C2CCCN(c3ncnc4onc(-c5ccc(F)cc5)c34)C2)c1 (centres undefined) | inactive: 90% |
| Fc1ccc(NCc2nnc3n2CCCCC3)cc1Cl | inactive: 102% |
| CCC(C(=O)NCc1cc(OC)ccc1OC)n1nc(C)c2sc3ccccc3c2c1=O (centres undefined) | inactive: 80% |
| O=C(O)C1=NN(c2ccccc2)C(=O)C1 | inactive: 78% |
| CN(C)c1cccc(C(=O)N2CCC(c3c[nH]c4ccccc34)(c3c[nH]c4ccccc34)CC2)c1 | inactive: 101% |
| Cc1cccc(CNC(=O)c2ccc(N3Cc4ccccc4Oc4ncccc43)s2)c1 | inactive: 84% |
| COc1cccc(C(=O)N2CCC(C(=O)Nc3cccc(Cl)c3)CC2)c1 | inactive: 53% |
